The source of these data is PMC10668032.

The list shows a part of the results. At the low end of the ranking, values are background and their order means little.

The assay deals with SIX1 homeodomain (reference allele) (UniProt Q15475). The assay is described as follows: universal protein binding microarray. Particulars: Universal all-10-mer PBM (8x60K, AMADID 030236), 300 nM GST-tagged protein, Alexa Fluor 488 anti-GST; buffer, salt, pH and temperature not stated; high values mean tight binding; most listed sequences are background and not binding sites; double strand, one strand shown.
On to AAGTCCAG, for which the binding signal is -0.23 E-score. Next, AGGCGCTC: -0.243 E-score; CTGTCCGA: -0.142 E-score; ATCGTTTG: 0.196 E-score.

As to CATAAGCC, the binding signal was -0.0998 E-score. For the sequence ATGCTCTC, the binding signal was -0.165 E-score. The same measure for CCAGACGA: -0.156 E-score; for AAGCTGAT: 0.24 E-score; for TAGGTGGA: 0.0029 E-score. GTAGCCCA: the binding signal is -0.137 E-score.

Turning to AAGGGCAT, the binding signal is -0.148 E-score. The same measure for TGACCTCA: -0.123 E-score. Consider CACGAGTG, for which the binding signal is -0.104 E-score. Next, ACTAAGGC: -0.271 E-score; ACGTGGAC: 0.0224 E-score.

For CAGGGTCG, the binding signal amounted to 0.109 E-score. Consider CGTGTTAA, for which the binding signal was found to be 0.0352 E-score.

CGATCCAG: the binding signal was 0.212 E-score.

For TGGGGACA, the binding signal is -0.0681 E-score.

Turning to CGCGGGTC, the binding signal stood at 0.0261 E-score.

As to CAAGCAGA, the binding signal stood at 0.0514 E-score. With AGTAGGGA, the binding signal is -0.0324 E-score.

As to AATCGTTG, the binding signal turned out to be 0.0357 E-score. Consider CCTGAAGG, for which the binding signal was -0.121 E-score.

For the sequence CCGTCGCC, the binding signal was -0.166 E-score. With CCTCGCAG, the binding signal is -0.0486 E-score. Next, CTCACAAC: -0.0592 E-score; CAGATAGC: 0.171 E-score. The same measure for AATAGCTC: -0.129 E-score; for GGAACAGA: -0.11 E-score.

Turning to CCACTATC, the binding signal was 0.227 E-score.

With CCGTCCAG, the binding signal is -0.00417 E-score.

As for GACCTTGA, the binding signal was -0.193 E-score. For the sequence TATGAGGA, the binding signal turned out to be 0.0339 E-score.

On to AGAGTTAG, for which the binding signal was -0.194 E-score. For CTAAACAC, the binding signal is -0.161 E-score.

GATTCGCC: the binding signal is -0.0444 E-score. The same measure for CACAATGC: 0.00304 E-score. The same measure for ACAACGGG: -0.124 E-score. Regarding AATGAAGT, the binding signal was -0.238 E-score. The same measure for CGTGTGGA: -0.0925 E-score; for CGACTCTC: -0.0633 E-score. The same measure for ATTTCGCC: 0.0575 E-score. ATTATAGC: the binding signal was found to be 0.176 E-score. As for TACAGCCA, the binding signal was -0.0567 E-score. Consider GTGTCAAC, for which the binding signal stood at 0.287 E-score.

With CGACATTA, the binding signal is -0.0192 E-score. For the sequence GTCCAAGA, the binding signal is -0.101 E-score. In the case of AAAGTCCA, the binding signal is -0.232 E-score. Next, CCTCATAG: -0.0882 E-score.

On to ATGGGTCA, for which the binding signal was 0.0525 E-score.

With AGGGGACG, the binding signal came to 0.0918 E-score.

For the sequence AATCTGTC, the binding signal came to 0.0252 E-score. For CACTCAGG, the binding signal was -0.0211 E-score. Next, ATGCAATC: 0.0546 E-score; CAAATTTC: -0.179 E-score; AGGACTTC: -0.106 E-score. On to AACTAGCC, for which the binding signal is -0.133 E-score. Next, GAATTTGA: -0.133 E-score; ACTAGTCT: -0.189 E-score. Next, ACTCCCGA: 0.0226 E-score; AAGTATTC: 0.0246 E-score; ACGCCGAC: -0.0352 E-score.

For the sequence ACGGATAA, the binding signal was 0.216 E-score. Turning to CGTCTATA, the binding signal was 0.0955 E-score. The same measure for CCCTACAC: 0.0682 E-score; for AACTGAGT: -0.0296 E-score; for AGCCTACT: 0.0136 E-score. The same measure for ACACGCTA: 0.00362 E-score; for ATTTGGAA: -0.0717 E-score; for CACCGGCG: 0.0505 E-score. Consider ATTACCCC, for which the binding signal was 0.177 E-score. In the case of ATCGGGAA, the binding signal came to 0.154 E-score. Next, CAAATCAA: -0.0232 E-score. Next, ATTTCCAG: -0.184 E-score.

Take GGCACAAA: the binding signal is -0.209 E-score. Consider CTCTGCCA, for which the binding signal was -0.27 E-score. Regarding TCGTTTAA, the binding signal was -0.212 E-score. As to AGACCAGC, the binding signal was -0.229 E-score.

Take CAGCGAGG: the binding signal is -0.134 E-score. Next, CTCACGTA: 0.177 E-score; CATGCTGA: 0.00739 E-score; ACACGAAT: 0.11 E-score.

As for GGGTCCGA, the binding signal was -0.0314 E-score. Next, AATTGTGG: -0.0402 E-score; ACATAGAT: 0.0949 E-score; AAGGTGCT: -0.227 E-score. AGACTCAC: the binding signal is -0.256 E-score.

ACGTCCAA: the binding signal is -0.11 E-score.

Turning to ATGGGACG, the binding signal is -0.206 E-score.

As to TGGGAACA, the binding signal was found to be 0.0717 E-score. ATTGTTAG: the binding signal was -0.0882 E-score. On to ATGAAAAT, for which the binding signal came to 0.026 E-score. With CAATCCGA, the binding signal is 0.224 E-score. Turning to CTGCACGC, the binding signal is -0.198 E-score. The same measure for AATCTAAC: -0.131 E-score; for CCGCAAGA: 0.079 E-score; for ATCATCAG: 0.154 E-score. For the sequence AAAATTTA, the binding signal is -0.19 E-score.

For CACCTCGG, the binding signal was determined as 0.137 E-score.

For the sequence AAACCTAC, the binding signal is -0.134 E-score. As for CTGCTACC, the binding signal is -0.0583 E-score. Turning to CTAGGACC, the binding signal is -0.0987 E-score.

Consider ACCATTGC, for which the binding signal was -0.0913 E-score. Next, GCCGCATA: 0.124 E-score; GGGCGCTA: -0.104 E-score. GGAACACC: the binding signal was determined as 0.187 E-score. Consider AAGCCTGT, for which the binding signal was -0.0406 E-score. The same measure for AGATTGAC: 0.0324 E-score; for AAAAATGA: -0.0934 E-score; for ATTGGGCG: -0.0198 E-score. For ATGATAGC, the binding signal came out at 0.379 E-score.

As to ACAGTCGA, the binding signal was -0.201 E-score. The same measure for AAGCTAGA: -0.113 E-score; for AACTCGGC: -0.3 E-score; for CAGGTGGG: -0.15 E-score. With ATTTTATA, the binding signal turned out to be 0.132 E-score. The same measure for CCAGTCGC: -0.131 E-score; for ATGGGTAA: 0.0327 E-score. The same measure for AGTAGCCG: -0.0687 E-score. As for GGTTCCCA, the binding signal is -0.204 E-score. Next, ACGCTTCC: -0.206 E-score; AAAGATCT: 0.059 E-score; ACACTATC: 0.268 E-score. For AGTGCTCG, the binding signal is -0.211 E-score. The same measure for GGTCGATA: 0.271 E-score. Next, CGTATCAG: 0.465 E-score; CAGGACAG: -0.181 E-score; TGAAGTCA: -0.266 E-score.

In the case of GAACCCTC, the binding signal is -0.133 E-score. Turning to ATAAAGAC, the binding signal was -0.0338 E-score.

With GACTGGGA, the binding signal was found to be 0.0333 E-score.

In the case of CAGGGGTA, the binding signal was 0.295 E-score.

As to GCCAAGTA, the binding signal was -0.221 E-score. Next, CGTGAAGC: -0.177 E-score; ACTCGCAC: -0.0596 E-score. As for GATGCCGC, the binding signal was 0.0159 E-score. Next, ATAATGTA: 0.181 E-score; CCATGACA: 0.0931 E-score; ACCCTTGG: 0.0265 E-score. The same measure for GACACTGA: 0.161 E-score; for GGAATTTA: -0.0752 E-score; for AGTCATGA: -0.000375 E-score. Next, ACTCAACG: -0.0521 E-score; GGATGATA: 0.443 E-score; ATGAACGG: -0.0546 E-score.

With AGCAACGC, the binding signal is -0.116 E-score.

For CTCCACAA, the binding signal is -0.089 E-score.

Consider AGTTACGA, for which the binding signal came to 0.0484 E-score. Regarding GCTAGCTA, the binding signal was -0.0717 E-score. The same measure for CGACGTGA: -0.0301 E-score; for CATAGTAC: 0.0714 E-score; for CCCGATCA: 0.347 E-score. Take ACAGTGCA: the binding signal was -0.129 E-score. Next, GGCCAAAA: -0.239 E-score. Next, CCGACATC: 0.0615 E-score; ATCTGAGC: 0.0648 E-score. The same measure for CGTCACGA: -0.0648 E-score.

For the sequence ATAAATCC, the binding signal is 0.175 E-score. Next, CTCGGCGA: 0.151 E-score.

Regarding ATACTCGG, the binding signal is 0.316 E-score.

In the case of ATCGTCTG, the binding signal was found to be 0.162 E-score. On to CATCCGTC, for which the binding signal came to 0.0183 E-score. As to CCCCGACG, the binding signal is 0.136 E-score. In the case of ATGCTCGA, the binding signal is -0.149 E-score.

As to ATATAGCC, the binding signal is 0.25 E-score.

As to AGTTGGGA, the binding signal was -0.101 E-score. Next, GCGGTCTA: -0.172 E-score; GCAGGCCC: -0.31 E-score; GGGGACCC: -0.164 E-score. The same measure for ACTTTTAT: -0.199 E-score; for CATCACCA: -0.146 E-score.
